Laboratory results taken from the supplement of paper PMC3334620.
In all, about 33,000 sequences were measured (“E-score (-0.5 to 0.5)”: median about -0.011, highest 2% from about 0.28 on). This is one part of the list.

The sequences below were run against T1, Gcr1 (UniProt P07261) (assay: PBM E-score (8-mer binding enrichment) (E-score (-0.5 to 0.5)); higher = stronger / more preferred TF binding; most listed sequences are background and not binding sites). Conditions: protein concentration: 100 nM; construct: GST-full length.
T1 sequence: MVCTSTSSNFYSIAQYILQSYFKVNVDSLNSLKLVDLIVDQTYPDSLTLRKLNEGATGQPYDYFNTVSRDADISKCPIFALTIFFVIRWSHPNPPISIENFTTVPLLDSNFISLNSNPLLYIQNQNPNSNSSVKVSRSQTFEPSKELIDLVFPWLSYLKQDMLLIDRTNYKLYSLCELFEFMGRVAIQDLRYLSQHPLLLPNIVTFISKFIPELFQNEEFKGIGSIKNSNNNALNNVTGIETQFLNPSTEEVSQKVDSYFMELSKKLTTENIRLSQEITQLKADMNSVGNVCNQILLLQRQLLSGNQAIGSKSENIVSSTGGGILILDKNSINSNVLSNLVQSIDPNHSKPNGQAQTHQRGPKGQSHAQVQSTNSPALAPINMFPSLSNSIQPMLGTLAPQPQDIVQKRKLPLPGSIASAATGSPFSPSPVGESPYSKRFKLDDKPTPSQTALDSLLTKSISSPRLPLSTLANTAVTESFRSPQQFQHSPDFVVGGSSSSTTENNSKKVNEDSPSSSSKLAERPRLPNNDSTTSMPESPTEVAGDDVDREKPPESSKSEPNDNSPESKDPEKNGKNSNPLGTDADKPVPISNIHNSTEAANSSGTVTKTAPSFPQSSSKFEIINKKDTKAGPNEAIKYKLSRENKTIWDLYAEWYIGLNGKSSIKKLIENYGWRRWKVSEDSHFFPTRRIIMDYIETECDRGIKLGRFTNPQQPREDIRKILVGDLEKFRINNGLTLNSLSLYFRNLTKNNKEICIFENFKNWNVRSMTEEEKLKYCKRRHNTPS
Procedure, shortened: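 E-scores (a modified Wilcoxon-Mann-Whitney statistic) were assigned by the Universal PBM Analysis Suite to every ungapped eight-base word pooled with its reverse complement. The input came from universal all-10-mer Agilent arrays made double-stranded by primer extension and probed with GST-tagged yeast transcription factors at about 100-200 nM. Fluorescent anti-GST detected bound protein, and masliner normalised the scans.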

Sequence | PBM E-score
AGTACCAG | 0.0431
AATGCTTC | -0.167
GCGATGTA | 0.0104
AATCAGTA | 0.0347
GTTAGAAC | -0.108
AGCTCGGG | 0.0372
ATTACGTA | 0.189
GAGTAAAC | 0.00232
ACTGTGAG | -0.0583
CTATCACA | 0.0182
GCTTACCA | -0.193
TGATATCA | 0.0841
ATAGGATC | 0.158
ATTATGCG | 0.218
TTACCGAA | 0.081
ACCTACTA | 0.0171
CAACATAG | -0.0499
CTTTTTTA | 0.176
CAAACCTA | -0.0633
AGCATTCC | -0.037
AACCAAAG | -0.00576
CCACGGCC | -0.0782
CTCAAATC | -0.0759
AAGAGACA | 0.0358
ACCGCCCA | -0.342

Sequence | PBM E-score
AACAGGGC | 0.0085
GCGTCTCA | 0.146
GCGAACAA | -0.16
CCGGGGTA | -0.111
CCAGGGGG | -0.231
ACTGGCCC | -0.0709
AATGTGGG | 0.021
AAAAATCC | -0.0869
ATTCTGGC | 0.0945
AAAGAAAC | 0.0061
GATCCAGC | 0.0574
CGGGGAAG | 0.0367
AGCTATAA | -0.0221
CAGCGAGA | -0.121
CCACGTAC | -0.016
ATGAGCAC | -0.046
ACGTGAAG | -0.187
CCCTAAGA | 0.11
ACTGATTG | -0.0248
AACCTATT | 0.163
AGGGAACG | 0.0557
CTAAAGAC | -0.0627
AGATATAA | -0.0208
ATCGTTCA | 0.0507
CTTTTTCA | -0.00472

Sequence | PBM E-score
CCAAGACC | -0.248
GCTAGGGA | 0.139
CAACTGCC | 0.176
GGCCTAAC | -0.133
CCATGATC | -0.175
TCAGTGAA | -0.123
ACCTGGCG | -0.162
ATCCACCC | -0.109
CGCCTCAC | -0.23
GCTAAAAC | 0.081
CCCGCTAG | -0.137
CAGAGTTC | -0.138
GAGATAGC | -0.0656
AGTGCCGA | -0.0356
GGTGTCAA | 0.0372
GAACTTCA | -0.0808
ATTAGATA | 0.088
AGCCTCCA | 0.00374
CAACCAAC | -0.102
TTCGGAAA | 0.0651
CCAGGCAC | 0.0853
CCCTCTCG | -0.238
CTCATTGC | -0.125
GAATTTCA | -0.109
GGTACAAC | 0.0843

Sequence | PBM E-score
CTCTGCGC | -0.22
AGTATTGC | 0.195
AGGACGGG | -0.227
TAGCGTAA | -0.0302
CCTGACGA | -0.0975
CGCCCTTC | -0.0575
CTAGCCTA | -0.269
GAAGGAAA | -0.165
TCCTACCA | -0.0385
ATTCCTTG | 0.0515
GCAGTTAA | -0.0197
ACATCTAC | -0.0726
GGGTTCGA | 0.0598
GGGTCAAC | -0.093
TGAGGGCA | -0.0382
AACGCTGT | -0.186
AACGTCAG | -0.316
CATCGTTC | 0.0509
AGCCGCAC | -0.0599
ATTGAACC | -0.0617
CAAATGCG | 0.131
ATTAGGGC | 0.0358
AATATCCC | 0.0593
GCTCCCCC | -0.105
CCAAAAAA | 0.272

Sequence | PBM E-score
AGGCTGAT | 0.00163
GGAGCGAC | -0.0613
GAACTCTA | -0.0935
CGTTGGGC | -0.0925
TCAATTAA | 0.126
ACTCTTGA | -0.15
GGGCATAA | -0.137
GAACGTAC | -0.214
CTCTTTAA | -0.101
ATAACTCA | -0.2
ACGCATCG | -0.00937
ACCACATA | 0.0238
CATACGTA | -0.0213
GTGATCTA | 0.0117
GCTAGGTA | -0.195
CCGGACTA | -0.068
TCCCACGA | 0.244
AGATGAAT | -0.0956
TAAACGCA | 0.158
AGGGTAAG | -0.131
AACAAATA | 0.035
ATTACACG | 0.176
AAGTTGTG | -0.0538
CACACGAC | -0.00814
CGGCATAC | -0.113

Sequence | PBM E-score
AGGCTTAC | -0.17
AAAAACGT | -0.0702
CGGGGATC | 0.184
CTGTTCCC | -0.0872
AAAATTCT | 0.149
GAAATCAC | 0.0926
CAGCTCGA | 0.0937
AAGTTGTC | 0.05
AGTCGCCG | 0.21
CATACTAC | 0.0478
GGTAACAA | 0.135
GACGCGTA | -0.0089
GCTGATTA | -0.0688
AGAAACGG | 0.0603
AGTACACG | 0.00782
ACTCCTGA | -0.0261
AACCACGT | -0.0375
GATAGATC | -0.21
GAGAAAGC | -0.0829
CCAGTTGA | -0.0652
ACCCCGCT | 0.0471
CACTCGGA | 0.214
TACCTGCA | 0.194
ATTCCAAG | 0.196
GGATGCTA | 0.44

Sequence | PBM E-score
ATGTCCCA | 0.022
AGACACTA | -0.0252
ACCCAAAT | 0.233
GATAGGGA | 0.0349
CCGCTACC | 0.046
AATCATAA | -0.0486
TAAGTGCA | -0.198
ATGTGGTC | -0.0553
TGTAGAAA | 0.0905
CGGGTCGC | -0.144
TAGGTAAA | -0.105
TCTCATAA | 0.0432
CAATTTAG | 0.0566
AAGTCTAA | -0.0934
ACATCTCC | -0.0256
ATTCGCGG | 0.193
CCTTCGCC | -0.218
ATGCTCAC | -0.0396
CCGGATTC | 0.313
CTCCTACA | -0.0367
CCCCTCAG | -0.0761
AACCTGGA | 0.0248
